T1: HMGB1(disulfide), disulfide linked form of full-length HMGB1 (HMGB1C23-C45C106h) (rat, UniProt P63159 1-215, disulfide C23-C45; C106 reduced)
T1 construct: unlabelled in Biacore and Attana; also called b-HMGB1(disulfide)
T1 sequence: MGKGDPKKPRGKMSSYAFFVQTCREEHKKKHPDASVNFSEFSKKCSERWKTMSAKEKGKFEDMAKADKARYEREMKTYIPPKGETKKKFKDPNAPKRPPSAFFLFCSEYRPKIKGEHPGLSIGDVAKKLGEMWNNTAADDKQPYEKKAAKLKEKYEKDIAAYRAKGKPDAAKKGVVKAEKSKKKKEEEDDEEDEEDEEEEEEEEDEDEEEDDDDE

T2: HMGB2 (human, UniProt P26583 1-209, limits assumed)
T2 construct: Bought protein
T2 sequence (looked up): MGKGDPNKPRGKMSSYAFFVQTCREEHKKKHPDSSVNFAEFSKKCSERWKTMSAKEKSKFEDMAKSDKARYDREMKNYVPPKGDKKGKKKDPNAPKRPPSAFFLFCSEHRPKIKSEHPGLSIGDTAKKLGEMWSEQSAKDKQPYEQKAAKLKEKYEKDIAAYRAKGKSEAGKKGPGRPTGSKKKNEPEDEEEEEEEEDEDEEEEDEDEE

B1: ZZA4263, Z(boxB)-L2-Z(boxA)-ABD (designed binder)
chain: AEAKYAKEAWLAEQEIWQLPNLTEAQFQAFILKLIDDPSQSSELLSEAKKLNDSQAPKGAPGGGGSTSAEAKYAKEDWDAFWEIIWLPNLTDAQQRAFIYKLEDDPSQSSELLSEAKKLNDSQAPKASGSLAEAKEAANAELDSYGVSDFYKRLIDKAKTVEGVEALKDAILAALP
notes: Heterodimer of ZH27 and ZH32 with PP013
B2: ZA3812 ([ZH 27]-ASGS-PP013) (designed binder)
chain: AEAKYAKEDWDAFWEIIWLPNLTDAQQRAFIYKLEDDPSQSSELLSEAKKLNDSQAPKASGSLAEAKEAANAELDSYGVSDFYKRLIDKAKTVEGVEALKDAILAALP

Legend:
[1] = molecular target: T1, HMGB1(disulfide), disulfide linked form …; assay: QCM (Attana A200); polypeptide captured on HSA, HMGB1(disulfide) injected; 1:1 or 1:2 model, average KD
Procedure: (§1) Binding analysis: The Attana A200® biosensor was used to characterize interactions between the dimeric polypeptides (SEQ ID NO:38-48) and HMGB1(red) under reducing conditions and/or HMGB1(disulfide) under non-reducing conditions. The monomeric ZA3812 (SEQ ID NO:35) was included for comparison. The experiment was performed as a capture assay, in which HSA was immobilized on Attana's sensor chip Low-NonSpecific-Binding (LNB). Immobilization was performed using amine coupling. The instrument has two sensor surfaces and HSA was immobilized on both surfaces. Around 110 Hz of HSA was stably immobilized on the surfaces.
(§2) In the kinetic experiment, HBS-EP+/−2 mM DTT was used as running buffer and the flow rate was 25 μl/min at 22° C. In each cycle, one polypeptide was tested against one concentration of HMGB1. […] The analyte HMGB1(reduced) was diluted in HBS-EP+2 mM DTT within a concentration range of 1.33 to 21.4 μg/ml, and the analyte HMGB1(disulfide) was diluted in HBS-EP buffer within a concentration range of 0.62 to 10 μg/ml. Both analytes were subsequently injected for 84 s over both channel A and B, where channel B was used as a blank surface for curve subtraction. Buffer injections were also made for surface subtractions. After dissociation, the surfaces were regenerated with a 30 s injection of 100 mM HCl followed by a 30 s injection of 20 mM NaOH. Data was collected by Attester Software and subsequently processed in the Evaluation Software. To calculate the kinetic parameters (kₐ and kd) and affinity constant (KD), the experimental data were fitted using a 1:1 or a 1:2 binding model.
(§3) Binding analysis of dimeric polypeptides targeting HMGB1: The interactions of a set of dimeric polypeptides, as well as one monomeric polypeptide, with HMGB1(reduced) and/or HMGB1(disulfide) were analyzed using an Attana A200® biosensor instrument by injecting various concentrations of HMGB1 over a surface containing captured polypeptides in fusion with ABD bound by immobilized HSA.

[2] = molecular target: T1, HMGB1(disulfide), disulfide linked form …; assay: SPR (Biacore 2000); ZZA4263 captured on immobilized HSA, analyte injected 8.3-675 nM; 1:1 Langmuir model
Procedure: (§4) HSA (Albucult®, Novozyme) was diluted to 10 μg/ml in acetate, pH 4.0, and immobilized onto a CM5 sensor chip using a Biacore 2000 instrument. Immobilization was performed by amine chemistry, using amine coupling kit, according to the manufacturer's instructions. The first surface of each chip was activated and deactivated for use as a reference cell (blank surface) during analyte injections. HBS-EP was used as running buffer, supplemented with 1.5 mM DTT when analyzing the binding to HMGB1(red). ZZA4263 was injected at a concentration of 100 nM for 4 minutes over the HSA and the reference sensor chip surfaces at a constant flow rate of 30 μl/min. This was followed by 4 minutes' injection of 0, 8.3, 25, 75, 225 and 675 nM of HMGB1(red), HMGB1(disulfide), HMGB2 (Biorbyt, cat. no. orb180287), HMGB3 (Biorbyt, cat. no. orb180288), SP100 (Biorbyt, cat. no. orb169341), TNF (R&D Systems, cat. no. 210-TA), IL-6 (R&D Systems, cat. no. 206-IL) and IL-1β (R&D Systems, cat. no. 201-LB/CF), respectively. The proteins were allowed to dissociate for 20 minutes before the chip surfaces were regenerated by two 10 second pulses using 10 mM HCl. The reference surface and the buffer sample were subtracted from all curves. The buffer sample was subtracted to adjust for the dissociation of ZZA4263 from HSA. All curves were fitted to a kinetic 1:1 Langmuir model in the BIA Evaluation software to estimate the binding properties (kₐ, kd and KD).
(§5) ZZA4263 was injected and captured on a surface with immobilized HSA followed by concentration series of HMGB1(red), HMGB1(disulfide), HMGB2, HMGB3, SP100, TNF, IL-6 and IL-1β. The highly homologous human proteins HMGB2, HMGB3, SP100 all bind to ZZA4263, although with 17-550 times lower affinity compared to HMGB1(red). No significant binding was detected to any of the other tested proteins involved in the HMGB1 signaling pathway (TNF, IL-6 and IL-1β).

[3] = molecular target: T2, HMGB2; assay: as above
Procedure: as §4, §5

[4] = molecular target: T1, HMGB1(disulfide), disulfide linked form …; assay: QCM (Attana A200); polypeptide captured on HSA, HMGB1(disulfide) injected; 1:1 or 1:2 model, relevant kd (most represented)
Procedure: as §1, §2, §3

| Binder | Kd [1] [nM] | Kd [2] [nM] | koff [2] [s⁻¹] | kon [2] [M⁻¹ s⁻¹] | Kd [3] [nM] | koff [3] [s⁻¹] | kon [3] [M⁻¹ s⁻¹] | koff [4] [s⁻¹] |
| --- | --- | --- | --- | --- | --- | --- | --- | --- |
| B1 | 7.6 | 11 | 0.00054 | 49000 | 2 | 0.00036 | 180000 | 0.00095 |
| B2 | 130 | – | – | – | – | – | – | 0.00048 |

Source: US20220389066A1 (Affibody, published 2022)
